Some of the results follow.
B1: chr14:78183846:78183847:+_ENSG00000119705_ENST00000557342|hu_hu|hu_hu_hu_mus_False|1_108 (ssRNA)
RNA: GGGAGUUCUACAGUCCGACGAUCUCUGUCUCAAAAAUCUUCAUCAGAUGUUUGAGCUCCGUGCAAAGCCUUUGCUCUUUGAGCUUGAACGUGGAUCUAUGGGAGGGAAAGCACUGUCAGAAAAGGUAAUUUUUUUUUCCGAAGCAACAGAGGAUUGAGCAUCA
B2: chr12:16048344:16048345:+_ENSG00000023734_ENST00000419869|hu_hu|hu_hu_hu_mus_True|1_98 (ssRNA)
RNA: GGGAGUUCUACAGUCCGACGAUCAGAUCGUCCAUAAGUUAUAACCAAAAUCUCUCCUUCAGGAAUAUACUCCAUGCUGCUAACAGACAUAUUAAAAUUCAGAGAUUUCACUUCUGUCAUUGUGGCAUGAUCCCAGAGUCGAACCAACAGAGGAUUGAGCAUCA
B3: chr2:37230337:37230338:-_ENSMUSG00000075376_ENSMUST00000100143|mus_mus|FALSE|FALSE (ssRNA)
RNA: GGGAGUUCUACAGUCCGACGAUCAAAUAGAAAUAAGUUAAUUAACUCUACUUUCACUAGAUGUAUCAUUGUAGGAUCCUGCUAGUUUAAUAACUGAGUUGUUAAUUUACUGUAGAAGCCAUUUAAAAUAGGAAAUGGCUCAGUCAACAGAGGAUUGAGCAUCA
B4: chr15:63762776:63762777:-_ENSMUSG00000022378_ENSMUST00000164532|mus_mus|FALSE|FALSE (ssRNA)
RNA: GGGAGUUCUACAGUCCGACGAUCAGUUAAUUUAAACAUUUCCAUUUUGGCUGCACAUGAAAAAGCGGCAGUAGAAAAUAAAUUUAUGAGGGUUUUAAAUAGCAGAAUAGGCAGUUUCGCCAUGCAGGAGAAGCAAUAUUAAAUCAACAGAGGAUUGAGCAUCA
B5: 126517571_126517691_1669_CDS_ENSMUSG00000025422_ENSMUST00000039259|mouse|control|control (ssRNA)
RNA: GGGAGUUCUACAGUCCGACGAUCCAUCUUGCGGUCACGAGUGGACGCUCGGCCGCCCUCCCGGCCCCUUUUCAGCCCUGGAGCUGGUGGCUCCAGAGUGAUAGGGGGUGCAGGCCCGAGGGGCUGCGUGGAGGUGGCAGUGACCAACAGAGGAUUGAGCAUCA
B6: chr11:29408400:29408401:+_ENSMUSG00000032740_ENSMUST00000040182|mus_hu|motif|central (ssRNA)
RNA: GGGAGUUCUACAGUCCGACGAUCAGUUAAAGCACAACAGCUUUAUCUUGGGAAUGCCAUUUGCUGAAAAACCAUCUUACGGAAAAAAAGUUUCAGAAAAACACUCUUUACCAUGGGUUAACUUAUGAAUGCUUAGUGUUGCUUCAACAGAGGAUUGAGCAUCA
B7: chr9:136895555:136895556:-_ENSG00000169925_ENST00000303407|hu_hu|FALSE|FALSE (ssRNA)
RNA: GGGAGUUCUACAGUCCGACGAUCGAGUACUUUCUACCAUUUUUAUUCUGUUGUGUUGAGGCCAGCAUUGCAAUAAACAAGCUAAACUACUUACAUUGGACUCAUUUUCAGUAACUGACAUUUACAGGAAUAUACUAGAAACGGCAACAGAGGAUUGAGCAUCA
B8: chrX:35985205:35985206:-_ENSMUSG00000048970_ENSMUST00000058265|mus_hu|FALSE|FALSE (ssRNA)
RNA: GGGAGUUCUACAGUCCGACGAUCAGGAGCUUGUAGGUGAUGAUGCUCAUGGUGGUGCAUUCUAUUUCCAUGACCAAUCCUAAUGUGUCCUAGCAUAGUGAUCAAAGCACAGAAAAUGCUUCCAAGCAUCACACCCUUCAAAAACAACAGAGGAUUGAGCAUCA
B9: 22471608_22471728_1187_CDS_ENSG00000158941_ENST00000389279|human|control|control (ssRNA)
RNA: GGGAGUUCUACAGUCCGACGAUCAUGGAGGGAAAAGGGCUGGCUCAGGGGGAAGGCUGAUAGCCAACUCAGAUGCACGGACAGAAAAUCUGAGGGGACCAGGAGGCUGCGGUAACGGCGCUGGAGUUCUAGGAAGUCACAGAUCAACAGAGGAUUGAGCAUCA
B10: chr7:44244176:44244177:+_ENSG00000106636_ENST00000223369|hu_mus|hu_hu_hu_mus_False|38_38 (ssRNA)
RNA: GGGAGUUCUACAGUCCGACGAUCACUGUCGCUCCGGACGUAGACAUGGCAAAGAUACUCUUGUUCUUUGACAGAAGCUCUGCUGCCUUUCCCCGAGCGCUCCACAAUCAGUUGACUUGUAAAGGUCAUGAAUUCCUGCACACUCAACAGAGGAUUGAGCAUCA
B11: chrX:20248820:20248821:+_ENSMUSG00000001924_ENSMUST00000001989|mus_mus|mus_mus_mus_hu_True|8_48 (ssRNA)
RNA: GGGAGUUCUACAGUCCGACGAUCGGCGAAGUCCGUCACCACAAAGUCAGGUUCUGCCAGUGAGGCCACCAAGGAUUUAAAGCUAAUCUUUUUCGGUACUUUGACCUGACUGACGAUGCCUCCACGGAUGUAGUCAGAGAAGUUCAACAGAGGAUUGAGCAUCA
B12: 147796766_147803679_1845_CDS_ENSG00000145868_ENST00000340253|human|control|control (ssRNA)
RNA: GGGAGUUCUACAGUCCGACGAUCUGCUUGUUCCUCAUCAACAUCCACAGGAAUAAUUGCCUGGCUGUGAGCUGGAGUAUUAUUUCCACUCUCGGCCACCACCUCUCCAUCUUCUUGGACGAUGUCUUCCAUCUCAUUUAAUGCCAACAGAGGAUUGAGCAUCA
B13: chr3:108394432:108394433:+_ENSMUSG00000040389_ENSMUST00000051145|mus_mus|FALSE|FALSE (ssRNA)
RNA: GGGAGUUCUACAGUCCGACGAUCAGGAAAACGCGGAGGAGAGGCCGGCGGCCAGAGCCCCGAGACAGCCAAUUCCAGUCUAAGGCGCGAGCGCGAGGGCGGCGGUCUGGGCUAAGCAGCCCGCACGUCAAUCCAUCAGCUCGUCAACAGAGGAUUGAGCAUCA
B14: chr1:135503150:135503151:-_ENSMUSG00000090553_ENSMUST00000166915|mus_hu|FALSE|FALSE (ssRNA)
RNA: GGGAGUUCUACAGUCCGACGAUCUUCUGCAUCAUCUAAUACAAGGUUCAUAUACUCAUCAAAACCAAUGAUACAGCCUUCUAUCCGCAUAUUCACUUGCUCAUAGAGCCACACCUGAAUCCGCGAUCUCUGAAAUAAUCAUAACAACAGAGGAUUGAGCAUCA

Target: T1, UNK ZnF1-3 (human, UniProt Q9C0B0 31-174)
T1 sequence: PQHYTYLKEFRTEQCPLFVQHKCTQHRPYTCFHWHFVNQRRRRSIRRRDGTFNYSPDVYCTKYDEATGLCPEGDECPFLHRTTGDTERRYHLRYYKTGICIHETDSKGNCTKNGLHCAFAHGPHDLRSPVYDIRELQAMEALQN
Experiment: nsRBNS (natural sequence RNA bind-n-seq); RBNS binding buffer (assumed for nsRBNS): 25 mM Tris pH 7.5, 150 mM KCl, 3 mM MgCl2, 0.01% Triton X-100, 500 ug/ml BSA, 20 U/ml SUPERase-In, 4 C; UNK is unkempt and MSI1 is Musashi-1; names of the RNAs are library labels; protein concentration not given here; high values mean tight binding

Binder	binding signal
B1	1.25 enrichment R
B2	1.08 enrichment R
B3	0.618 enrichment R
B4	2.91 enrichment R
B5	0.776 enrichment R
B6	0.911 enrichment R
B7	0.956 enrichment R
B8	0.548 enrichment R
B9	1.74 enrichment R
B10	0.731 enrichment R
B11	1.04 enrichment R
B12	0.517 enrichment R
B13	0.897 enrichment R
B14	0.957 enrichment R

Reference: publication PMC12136788
